Test results as given in PubChem BioAssay AID504332 (National Center for Advancing Translational Sciences (NCATS), 2011).
“And” between values parts separate entries of the source, which are not always exact repeats. Equal entries are not always repeated. In all, about 350,000 compounds went through this assay and about 31,000 (8.9%) were called active. The shares of active, inactive and inconclusive entries below differ from those in the screen. Calls follow the shape of the dose curve; as a rule, active = well fitted inhibition curve with a large enough effect; inconclusive = small, poorly fitted or top-dose-only effect; inactive = no such curve, though single readings can be large or run the other way. Potencies beside an inconclusive call are fits to weak or partial responses and may not hold up.
% is scaled to controls: 0 for no effect and ±100 for the full control effect; potency is read from the fitted curve at half-maximal effect; tags tell the direction and shape of the fitted curve.
Also: nearly all actives have a fitted effect of over 75% in size.

What follows are compounds tested against Histone-lysine N-methyltransferase EHMT2 (Homo sapiens) (UniProt Q96KQ7) (assay: qHTS Assay for Inhibitors of Histone Lysine Methyltransferase G9a). Conditions: G9a H3K9 monomethylation, AlphaScreen, 2 h; activity, negative = inhibition: at 59 µM (top of the series) unless noted.
Sequence of UniProt Q96KQ7 (Q96KQ7 whole entry, looked up): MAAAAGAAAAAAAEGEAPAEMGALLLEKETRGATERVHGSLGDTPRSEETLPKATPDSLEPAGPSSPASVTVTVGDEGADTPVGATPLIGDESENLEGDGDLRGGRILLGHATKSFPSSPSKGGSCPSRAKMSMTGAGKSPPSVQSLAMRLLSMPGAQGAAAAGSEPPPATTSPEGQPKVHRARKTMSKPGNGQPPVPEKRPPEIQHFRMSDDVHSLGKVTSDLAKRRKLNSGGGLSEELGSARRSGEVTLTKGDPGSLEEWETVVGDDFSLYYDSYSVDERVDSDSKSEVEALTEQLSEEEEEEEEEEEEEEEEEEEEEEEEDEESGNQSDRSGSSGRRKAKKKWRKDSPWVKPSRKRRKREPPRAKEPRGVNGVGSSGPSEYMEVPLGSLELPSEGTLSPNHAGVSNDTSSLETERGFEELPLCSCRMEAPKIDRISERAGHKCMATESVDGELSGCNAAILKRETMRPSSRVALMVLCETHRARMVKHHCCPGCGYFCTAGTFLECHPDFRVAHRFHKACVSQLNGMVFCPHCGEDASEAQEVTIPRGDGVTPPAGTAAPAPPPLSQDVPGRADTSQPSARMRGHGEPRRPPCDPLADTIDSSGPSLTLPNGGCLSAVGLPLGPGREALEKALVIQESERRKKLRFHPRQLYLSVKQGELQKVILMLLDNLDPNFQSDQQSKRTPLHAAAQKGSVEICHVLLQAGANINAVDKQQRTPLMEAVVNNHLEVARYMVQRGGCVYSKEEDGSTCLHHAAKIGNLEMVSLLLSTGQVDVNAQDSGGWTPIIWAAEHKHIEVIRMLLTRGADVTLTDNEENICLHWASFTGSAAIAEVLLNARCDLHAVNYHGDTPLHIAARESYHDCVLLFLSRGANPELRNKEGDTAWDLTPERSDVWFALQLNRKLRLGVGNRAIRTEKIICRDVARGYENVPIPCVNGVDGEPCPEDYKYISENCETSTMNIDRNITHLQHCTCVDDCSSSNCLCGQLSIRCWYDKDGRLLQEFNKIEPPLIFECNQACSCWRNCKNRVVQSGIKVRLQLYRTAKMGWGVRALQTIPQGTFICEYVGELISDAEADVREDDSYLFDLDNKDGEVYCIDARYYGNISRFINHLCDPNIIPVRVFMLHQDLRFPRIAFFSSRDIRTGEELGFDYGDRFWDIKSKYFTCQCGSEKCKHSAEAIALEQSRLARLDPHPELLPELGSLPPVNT
Method in brief: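 Methyltransferase reactions run at room temperature for 2 h (20 nM enzyme, 500 nM biotin-H3K9 peptide, 20 uM SAM) after a 15 min compound preincubation; product detected by AlphaScreen beads and anti-H3K9me1 antibody.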
For `COc1ccc(Nc2cc(Cl)nc(N)n2)cc1OC`, the Potency was inconclusive: 79.4 µM [inhibitor, partial curve, poor fit].
In the case of `CCOC(=O)N1CCN(S(=O)(=O)c2ccc(C(=O)N(CCCN(C)C)c3nc4c(C)c(C)ccc4s3)cc2)CC1`, the Potency is reported as active: 50.1 µM.
In the case of `O=C(O)c1ccc(-n2cccc2)cc1O`, the activity, negative = inhibition is reported as inconclusive: -65.3% [inhibitor].
`CC1CCc2nc(NC(=O)Cc3cccs3)sc2C1` (centres undefined) was tested, and the “activity, negative = inhibition” value was inactive: -19.5%.
In the case of `COc1ccccc1-c1ocnc1C(=O)N1CCN(C(=O)C(c2ccccc2)c2ccccc2)CC1`, the “activity, negative = inhibition” value is reported as inactive: -2.26%.
For `CN1CCN(C(=O)C2CCCN(S(=O)(=O)c3ccc(F)cc3)C2)CC1` (centres undefined), the Potency was active: 14.1 µM.
For `CCOc1cc(C2C(C#N)=C(N)OC(C)=C2C(C)=O)cc(Br)c1O` (centres undefined), the activity, negative = inhibition was inconclusive: -67.3% [inhibitor].
With `CCOc1ccc(NC(=O)c2ccc(F)c(S(=O)(=O)N(Cc3ccc(C(=O)OC)cc3)Cc3ccc(OC)c(OC)c3)c2)cc1` the “activity, negative = inhibition” value was inactive: 5.44%.
In the case of `CCOc1ccc(N2CC(C)Cn3c2nc2c3c(=O)n(Cc3c(F)cccc3Cl)c(=O)n2C)cc1` (centres undefined), the Potency is reported as inconclusive: 39.8 µM [inhibitor, partial curve, poor fit].
With `NS(=O)(=O)c1ccc(NC(=S)NC2CCCC2)cc1` the Potency was active: 8.91 µM.
`CC1CCCN(C(=S)SCC(=O)c2cc(Br)cc(Br)c2O)C1` (centres undefined) was tested, and the Potency was inconclusive: 39.8 µM [inhibitor, partial curve, poor fit].
With `CCOC(=O)c1c(NC(=O)CSc2nnc(CNc3ccc(F)cc3)o2)sc(C(C)=O)c1C` the activity, negative = inhibition was inactive: 33.2% [at 2.33 µM].
In the case of `Cc1ccc(-c2nnn(CC(=O)NCCc3ccc4c(c3)OCO4)n2)o1`, the activity, negative = inhibition is reported as inconclusive: -58.5% [inhibitor].
With `COc1cccc(N2CCN(C(=O)C3CCCN(S(=O)(=O)c4cnc[nH]4)C3)CC2)c1` (centres undefined) the Potency was inconclusive: 39.8 µM [inhibitor, full curve, poor fit].
With `CCOc1ccc(-n2c(N)c(C(=O)NCC3CCCO3)sc2=S)cc1` (centres undefined) the activity, negative = inhibition was inconclusive: -103% [inhibitor].
For `CC1=CC2=C(OC1N(C)C)c1cccc3cccc(c13)C2=O` (centres undefined), the Potency was inconclusive: 2.82 µM [inhibitor, partial curve, poor fit].
With `Cc1cc([N+](=O)[O-])ccc1NC(=O)c1csc(C)c1C` the Potency was inconclusive: 79.4 µM [inhibitor, single point].
In the case of `O=C(Nc1nc2c(s1)CN(Cc1ccccc1)CC2)C1CCCC1`, the Potency is reported as active: 44.7 µM.
`CC(=O)c1cccc(NC(=O)CN2CCN(Cc3ccccc3)CC2)c1` was tested, and the Potency was active: 7.08 µM.
With `O=c1[nH]c2cc3c(cc2cc1C(c1nnnn1C1CCCC1)N1CCCc2ccccc21)OCCO3` (centres undefined) the “activity, negative = inhibition” value was inactive: -11.2% [at 102 µM].
With `COc1ccc(CC(=O)Nc2nc(-c3cc(OC)ccc3OC)cs2)cc1` the Potency was inconclusive: 44.7 µM [inhibitor, partial curve, poor fit].
In the case of `Cc1csc(NC(=O)CSc2nc(C)nc3c2c(=O)n(C)c(=O)n3C)n1`, the Potency is reported as inconclusive: 28.2 µM [inhibitor, partial curve, poor fit].
For `NC(=O)CSc1oc(-c2ccc(F)cc2)nc1S(=O)(=O)c1ccccc1`, the Potency was inconclusive: 0.708 µM [inhibitor, partial curve, poor fit].
In the case of `CCOCCCNC(=S)N(CCCN(C)C)Cc1cc2cc3c(cc2[nH]c1=O)OCCO3`, the Potency is reported as inconclusive: 15.8 µM [inhibitor, partial curve, poor fit].
With `COc1cccc(CC2(CO)CCCN(Cc3ccc(-c4ccco4)cc3)C2)c1` (centres undefined) the Potency was active: 39.8 µM.
In the case of `O=C(CSc1ncc(-c2ccccc2)[nH]1)Nc1cccc(Br)c1`, the Potency is reported as active: 12.6 µM.
In the case of `O=c1c(-c2ccccc2Cl)c[nH]n1-c1ccccc1`, the “activity, negative = inhibition” value is reported as inactive: -14.7% [at 102 µM].
For `COc1ccccc1Cn1c(=O)[nH]c2cccnc21`, the Potency was inconclusive: 0.891 µM [inhibitor, partial curve, poor fit].
With `COc1cccc(-n2c(C)nc3cc(C(=O)O)ccc32)c1` the Potency was inconclusive: 3.16 µM [inhibitor, partial curve, poor fit].
In the case of `Cc1ccc(N2CC(O)Cn3c2nc2c3c(=O)n(C)c(=O)n2C)cc1` (centres undefined), the “activity, negative = inhibition” value is reported as inactive: 0.315% [at 102 µM].
`CCC(C)N(C(=O)COC(=O)c1nc2nc(C)cc(C)n2n1)C1CCS(=O)(=O)C1` (centres undefined) was tested, and the Potency was active: 15.8 µM.
With `CSc1n[nH]c(=S)n1N` the Potency was inconclusive: 3.55 µM [inhibitor, single point].
For `Cc1cccn2cc(CSc3ccccc3N)nc12`, the Potency was inconclusive: 89.1 µM [inhibitor, single point].
`COc1ccccc1-c1nnc(C2CCN(S(=O)(=O)c3ccccc3[N+](=O)[O-])CC2)o1` was tested, and the Potency was active: 39.8 µM.
With `CCc1ccc(/C=C2\SC(=S)N(CCCC(=O)Nc3ccccc3C(=O)O)C2=O)cc1` the Potency was active: 31.6 µM.
With `CSC1=NCCN1CCOc1ccccc1` the Potency was inconclusive: 25.1 µM [inhibitor, single point].
In the case of `Cc1ccsc1/C=N/NS(=O)(=O)c1ccc([N+](=O)[O-])cc1`, the Potency is reported as inconclusive: 17.8 µM [inhibitor, single point].
In the case of `CCN1CCN(c2ccc(S(=O)(=O)N3CCCCC3)cc2NC(=O)Cc2ccc(Cl)c(Cl)c2)CC1`, the Potency is reported as active: 39.8 µM.
For `C/C(=N\NC(=S)Nc1ccc(C(C)C)cc1)c1ccc2c(c1)OCO2`, the Potency was inconclusive: 39.8 µM [inhibitor, partial curve, poor fit].
`O=C(O)COc1ccc(/C=N/NC(=O)C2CCCN2S(=O)(=O)c2ccc(Cl)cc2)cc1` (centres undefined) was tested, and the Potency was active: 44.7 µM.
For `Nc1ccc(CCNc2ncnc3c2ncn3C2OC(CO)C(O)C2O)cc1` (centres undefined), the Potency was inconclusive: 56.2 µM [inhibitor, partial curve].
`CCOC(=O)c1c(NC(=O)CN2C(=O)NC3(CCCC3)C2=O)sc(C)c1CC` was tested, and the Potency was inconclusive: 56.2 µM [inhibitor, partial curve, poor fit].
In the case of `O=C(Cc1csc(-c2ccc(F)cc2)n1)Nc1cccc(S(=O)(=O)NC2=NCCC2)c1`, the Potency is reported as inconclusive: 25.1 µM [inhibitor, partial curve, poor fit].
With `CCn1c(C)c(C)c2cc(C(=O)Nc3cccc(Cl)c3)ccc21` the Potency was active: 79.4 µM.
For `OCCN1CCN(c2ncnc3c2c(-c2ccccc2)cn3-c2ccc(Br)cc2)CC1`, the Potency was active: 35.5 µM.
`CCn1cc(/C=C(/C#N)S(=O)(=O)c2ccccc2)cn1` was tested, and the Potency was inconclusive: 0.708 µM [inhibitor, full curve, poor fit].
For `CCOc1ccc(CCNc2ncnc3onc(-c4ccc(Cl)cc4)c23)cc1`, the “activity, negative = inhibition” value was inactive: 11.2%.
`Cc1ccc(-c2csc(=S)n2CC(=O)OCC(=O)NCc2ccco2)cc1` was tested, and the “activity, negative = inhibition” value was inactive: -16.1%.
`CCOC(=O)CSC1=C(C#N)C(c2ccc(C)s2)CC(=O)N1` (centres undefined) was tested, and the Potency was inconclusive: 89.1 µM [inhibitor, single point].
With `CCn1nnc2cc(C(=O)Nc3ccc(C)cc3Br)ccc21` the Potency was inconclusive: 0.316 µM [inhibitor, full curve].
In the case of `CCCCc1cc(=O)oc2c(C)c(OCc3nn[nH]n3)ccc12`, the Potency is reported as active: 50.1 µM.
For `CCOC(=O)c1cnc(-n2nc(C)cc2C)nc1Oc1ccccc1F`, the Potency was inconclusive: 89.1 µM [inhibitor, partial curve, poor fit].
In the case of `CC1CCN(S(=O)(=O)c2ccc3nc(NCc4ccc(F)cc4)ccc3c2)CC1`, the Potency is reported as inconclusive: 11.2 µM [inhibitor, partial curve].
`O=C(Nc1ccc(C(=O)O)cc1)/C(=C\c1ccco1)NC(=O)c1ccccc1Cl` was tested, and the “activity, negative = inhibition” value was inactive: -17.4% [at 102 µM].
`Cc1c(NC(=O)c2cc(-c3ccc(Br)cc3)on2)c(=O)n(-c2ccccc2)n1C` was tested, and the Potency was inconclusive: 6.31 µM [inhibitor, partial curve, poor fit] and inconclusive: 79.4 µM [inhibitor, single point].
For `O=[N+]([O-])c1ccc(Cl)c(-c2ccc(/C=N/c3c(-c4ccco4)nc4ccccn34)o2)c1`, the Potency was inconclusive: 56.2 µM [inhibitor, partial curve, poor fit].
`O=[N+]([O-])c1ccccc1N/N=C/c1c[nH]c2ccccc12` was tested, and the Potency was inconclusive: 8.91 µM [inhibitor, single point].
`O=NC1=C(c2c(O)[nH]c3ccccc23)CCCC1` was tested, and the activity, negative = inhibition was inconclusive: -60.3% [inhibitor].
With `COc1ccc(CC(=O)NNS(=O)(=O)c2ccccc2[N+](=O)[O-])cc1` the “activity, negative = inhibition” value was inactive: -1.31% [at 102 µM].
For `O=C(NCC1CCCO1)c1ccccn1` (centres undefined), the Potency was inconclusive: 28.2 µM [inhibitor, single point].
In the case of `O=C(COc1ccc(Br)cc1Cl)NCCCN1CCOCC1`, the “activity, negative = inhibition” value is reported as inactive: -22.5% [at 102 µM].
For `CC(/C=C/c1ccccc1)=N\Nc1nc2c(c(=O)[nH]c(=O)n2C)n1CCO`, the Potency was inconclusive: 89.1 µM [inhibitor, single point].
In the case of `COC(=O)c1cccc(NC(=S)NCCC2=CCCCC2)c1`, the “activity, negative = inhibition” value is reported as inactive: 92.8%.
With `C=CCn1c(SCC(=O)Nc2sccc2C(N)=O)nc2ccccc2c1=O` the Potency was inconclusive: 8.91 µM [inhibitor, partial curve, poor fit].
For `O=C(Nc1ccccn1)c1cc(-c2cccc(Cl)c2)nc2ccccc12`, the “activity, negative = inhibition” value was inactive: 6.19%.
For `Cc1ccccc1Cn1c(CN2CCN(c3ccc(F)cc3)CC2)nc2c1c(=O)n(C)c(=O)n2C`, the Potency was inconclusive: 22.4 µM [inhibitor, partial curve, poor fit].
For `Cc1ccc(OCCC(=O)OCC(=O)N2CCN(S(=O)(=O)c3ccc(Cl)cc3)CC2)cc1`, the “activity, negative = inhibition” value was inactive: -2.82% [at 102 µM].
`Clc1ccccc1-c1ccc(CN2CCN(c3ccccc3)CC2)o1` was tested, and the Potency was inconclusive: 12.6 µM [inhibitor, partial curve, poor fit].
In the case of `COCCn1c(=NC(=O)c2ccc(S(=O)(=O)N3CCc4ccccc4C3)cc2)sc2cc(OC)ccc21`, the Potency is reported as inconclusive: 6.31 µM [inhibitor, single point].
